The supplement of paper PMC6746778
This is one part of the list. Most values come without repeats; read them as rough.

Tests used:
Test in all cases: proliferation Z-score within cell line (SRB, relative to all inhibitors screened on that line); triple-negative breast cancer lines and a kinase inhibitor library; SRB is the sulforhodamine B protein stain; higher = less growth inhibition (more resistant)
Conditions in all cases: concentration: 1 µM; 4 days
Bt20 = tested on: Bt20
Bt549 = tested on: Bt549
HCC1143 = tested on: HCC1143
HCC1806 = tested on: HCC1806
HCC1937 = tested on: HCC1937
HCC38 = tested on: HCC38
HCC70 = tested on: HCC70
Hs578T = tested on: Hs578T
MDA-MB-231 = tested on: MDA-MB-231
MDA-MB-435s = tested on: MDA-MB-435s
MDA-MB-436 = tested on: MDA-MB-436
MDA-MB-453 = tested on: MDA-MB-453
MDA-MB-468 = tested on: MDA-MB-468
SKBR7 = tested on: SKBR7
SUM1315MO2 = tested on: SUM1315MO2
SUM149PT = tested on: SUM149PT
SUM159PT = tested on: SUM159PT
SUM185PE = tested on: SUM185PE
SUM229PE = tested on: SUM229PE
SUM52PE = tested on: SUM52PE
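Further: Single-dose primary screen of a 378-member kinase inhibitor library in 96-well plates, with growth read as absorbance of protein-bound SRB dye after TCA fixation.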

Structure (SMILES) | proliferation Z-score within cell line (Bt20) | proliferation Z-score within cell line (Bt549) | proliferation Z-score within cell line (HCC1143) | proliferation Z-score within cell line (HCC1806) | proliferation Z-score within cell line (HCC1937) | proliferation Z-score within cell line (HCC38) | proliferation Z-score within cell line (HCC70) | proliferation Z-score within cell line (Hs578T) | proliferation Z-score within cell line (MDA-MB-231) | proliferation Z-score within cell line (MDA-MB-435s) | proliferation Z-score within cell line (MDA-MB-436) | proliferation Z-score within cell line (MDA-MB-453) | proliferation Z-score within cell line (MDA-MB-468) | proliferation Z-score within cell line (SKBR7) | proliferation Z-score within cell line (SUM1315MO2) | proliferation Z-score within cell line (SUM149PT) | proliferation Z-score within cell line (SUM159PT) | proliferation Z-score within cell line (SUM185PE) | proliferation Z-score within cell line (SUM229PE) | proliferation Z-score within cell line (SUM52PE)
C[C@@H](Oc1cc(-c2cnn(C3CCNCC3)c2)cnc1N)c1c(Cl)ccc(F)c1Cl | 0.719 | 0.818 | 1.3 | 0.733 | 1.06 | 0.451 | 0.907 | 0.0707 | -0.944 | -0.655 | 0.927 | 0.65 | -0.264 | -0.172 | 1.16 | 0.971 | 0.715 | 0.993 | 0.398 | 0.402
Cc1cnc(Nc2ccc(OCCN3CCCC3)cc2)nc1Nc1cccc(S(=O)(=O)NC(C)(C)C)c1 | 0.788 | 0.44 | 0.0932 | 0.548 | 0.237 | 0.648 | 0.755 | 0.566 | -0.534 | -0.666 | -0.122 | 0.676 | -0.227 | 0.314 | -0.35 | -0.535 | 0.723 | -0.189 | 0.549 | -0.211
CS(=O)(=O)c1cccc(CNc2nc(Nc3ccc4c(c3)CCC(=O)N4)ncc2C(F)(F)F)c1 | 0.745 | 0.493 | 0.842 | -0.171 | -0.861 | 0.533 | -1.76 | 0.622 | 0.379 | 0.382 | -0.403 | 0.894 | 0.872 | 0.35 | 0.104 | 0.37 | 0.616 | -0.263 | 0.535 | -1.08
O=C1NC(=O)/C(=C/c2cccc(C(F)(F)F)c2)S1 | 0.509 | 0.308 | 0.422 | 0.432 | 0.642 | 0.381 | 0.518 | 0.587 | 0.828 | 0.812 | 0.808 | 0.262 | 0.866 | 0.606 | 0.987 | 0.622 | 0.413 | 0.814 | 0.558 | 0.966
Nc1ccc(C(=O)Nc2cccc(-c3nc(N4CCOCC4)c4oc5ncccc5c4n3)c2)cn1 | 0.0765 | -0.0917 | 0.469 | -0.758 | 0.468 | 0.372 | 0.659 | 0.27 | 0.689 | 0.592 | 0.582 | 0.0182 | -0.756 | -0.149 | -0.62 | 1.16 | 0.505 | -0.584 | 0.107 | -0.935
COc1ccc(COc2cc3oc(=O)c4cc(C(C)O)ccc4c3cc2OC)cc1 (stereo not given) [Palomid 529 (P529)] | 0.629 | 0.726 | 0.486 | 0.456 | 0.519 | 0.325 | 0.418 | 0.659 | 0.577 | 0.66 | 1.08 | 0.596 | 0.687 | 0.394 | 0.555 | 0.629 | 0.484 | 0.709 | 0.207 | 0.8
COc1cc2ncnc(Nc3ccc(F)c(Cl)c3)c2cc1NC(=O)/C=C/CN1CCCCC1 | -0.00668 | 0.768 | -0.328 | -1.03 | -0.604 | 0.579 | 0.66 | 0.715 | 0.714 | 0.799 | 0.484 | -0.654 | -0.841 | 0.783 | 0.352 | -0.215 | 0.682 | 0.504 | -0.133 | 0.475
CC(C)n1nc(-c2cc3cc(O)ccc3[nH]2)c2c(N)ncnc21 | -1.16 | -1.73 | 0.503 | -0.442 | -0.455 | -0.588 | -0.889 | -2.47 | 0.0236 | -0.472 | -0.108 | -1.89 | 0.651 | -1.43 | -1.48 | -0.616 | 0.6 | -1.67 | -0.249 | -1.11
Cc1cc(CN2CCN(c3c(Br)cnc4nc(-c5ccc(N6CCN(C)CC6)cc5)[nH]c34)CC2)no1 | -1.08 | 0.766 | 0.842 | 1.02 | 0.753 | 0.606 | 0.814 | 0.785 | -0.415 | 0.275 | 0.997 | 1.12 | -1.28 | 0.849 | -0.51 | 0.498 | 0.629 | -0.279 | 0.232 | -1.16
CCOc1cc(N2CCC(O)CC2)ccc1Nc1ncc2c(n1)N(C)c1ccccc1C(=O)N2C | 0.816 | 0.594 | 0.485 | 0.636 | 0.637 | 0.232 | 0.52 | 0.503 | 0.632 | 0.714 | 0.8 | 0.646 | 0.806 | 0.615 | 0.95 | 0.764 | 0.446 | 0.921 | 0.61 | 0.813
Cc1ccc(C(=O)Nc2ccc(CN3CCN(C)CC3)c(C(F)(F)F)c2)cc1C#Cc1cnc2cccnn12 | -0.756 | 0.558 | 1.08 | 1.58 | 0.844 | 0.723 | 0.749 | 0.338 | -2.04 | -1.75 | 0.764 | -0.0258 | -0.462 | 1.39 | -1.9 | -0.291 | 0.619 | -1.72 | -1.09 | -1.47
COc1ccc(C(=O)Nc2sc3c(c2C(N)=O)CCCC3)cc1OC | 0.375 | -0.125 | 0.304 | -0.0806 | 0.264 | 0.251 | 0.194 | 0.00845 | 1 | 0.463 | 0.55 | -1.09 | 0.785 | -0.745 | 0.801 | 0.418 | 0.161 | 0.156 | 0.33 | 0.854
O=C(/C=C/c1ccc(O)c(O)c1)c1ccc(O)cc1O [Butein] | 0.696 | 0.51 | 0.552 | 0.778 | 0.588 | 0.422 | 0.505 | 0.519 | 0.945 | 0.717 | 0.196 | 0.663 | 0.823 | 0.751 | 0.684 | 0.81 | 0.411 | 0.856 | 0.765 | 1.09
